Experimental data as given in PubChem BioAssay AID485344 (National Center for Advancing Translational Sciences (NCATS), 2010).
The whole screen tested about 340,000 compounds, of which about 6,900 (2%) were called active. No stated cut-off is given here; in the data, active means inhibition above about 30%; inactive means below that, where a call was filed. The entries are a selection whose mix differs from that of the whole data set. The source gives no active or inactive call for entries shown without one.

target: D(2) dopamine receptor (Homo sapiens) (UniProt P14416); assay: HTS Assay for Allosteric Antagonists of the Human D2 Dopamine Receptor: Primary Screen for Antagonists; conditions: HEK293 TREx D2 cells, calcium flux, dopamine EC80; at 10 µM; stronger effect = higher value; further: 0% is about no effect
Outline: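 Inhibition of EC80 dopamine-driven calcium flux, recorded kinetically, defines activity here; cells are a tetracycline-induced HEK293 T-REx line expressing force-coupled D2.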

Sequence of UniProt P14416 (P14416 whole entry, looked up): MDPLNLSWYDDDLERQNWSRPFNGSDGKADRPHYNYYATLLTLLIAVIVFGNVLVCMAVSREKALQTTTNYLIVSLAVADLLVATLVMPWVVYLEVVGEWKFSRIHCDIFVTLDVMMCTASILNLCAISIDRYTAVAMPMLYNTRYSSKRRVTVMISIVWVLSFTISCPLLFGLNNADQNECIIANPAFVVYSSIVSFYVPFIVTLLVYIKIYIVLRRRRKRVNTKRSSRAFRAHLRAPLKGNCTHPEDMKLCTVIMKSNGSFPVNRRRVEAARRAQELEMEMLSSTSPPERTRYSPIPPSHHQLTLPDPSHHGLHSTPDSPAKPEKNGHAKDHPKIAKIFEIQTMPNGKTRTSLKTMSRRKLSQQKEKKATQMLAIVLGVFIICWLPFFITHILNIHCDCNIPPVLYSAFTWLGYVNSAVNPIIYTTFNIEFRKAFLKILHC

| Structure (SMILES) | inhibition |
| --- | --- |
| Cc1ccc2oc3c(c(=O)c2c1)C(c1ccc(O)cc1)N(CCCN(C)C)C3=O (stereo not given) | 3.19% |
| Cc1ccc(-n2c(=O)c3cccnc3n2CC(=O)NCc2ccc(Cl)cc2)cc1 | -16.2% |
| COC(=O)c1ccc([C@@H]2Nc3c(OC)ccc(C)c3[C@@H]3C=CC[C@@H]32)cc1 | -23.7% |
| Nc1c(C(=O)Nc2ccc(F)cc2)sc2nc(-c3cccs3)cc(C(F)(F)F)c12 | -17% |
| Cc1cc(F)ccc1NC(=O)C(c1ccccc1)N1Cc2ccccc2C1=O (stereo not given) | 13.6% |
| COc1ccc(C(=O)Nc2cccc(C(=O)OCc3cc(=O)n4nc(C5CC5)sc4n3)c2)cc1 | 2.84% |
| O=C(Cc1ccccc1)Nc1sc2c(c1C(=O)Nc1ccccc1Cl)CCCCC2 | 3.02% |
| CCCN1CCN(c2nc(-c3cccs3)nc3ccccc23)CC1 | active: 36.6% |
| CC(C)c1ccc(NC(=O)CSC2=Nc3ccccc3C3=NC(CCC(=O)NC4CCCCC4)C(=O)N23)cc1 (stereo not given) | -7.56% |
| Cn1cccc1CNC(=O)Nc1ccc(Cl)cc1 | active: 30.6% |
| COC(=O)c1cc(Nc2nc3ccccc3nc2NS(=O)(=O)c2ccc(C)cc2)ccc1Cl | 1.8% |
| COc1ccc2c(c1)CCc1c(C(=O)Nc3cc(OC)c(Cl)cc3OC)noc1-2 | 21.3% |
| Oc1ccccc1N1CCN(C(c2ccccc2)c2ccccc2)CC1 | active: 30.3% |
| O=C(Cn1c(=O)n(Cc2nc(-c3ccccc3)no2)c(=O)c2cc3c(cc21)OCO3)Nc1ccccc1 | 11.3% |
| O=C(Nc1ccc(F)cc1)N1CCn2c(nc3ccccc32)C1 | active: 33.4% |
| CCOc1ccc(-n2c(SCC(=O)Nc3cc(C)ccc3C)nc3c([nH]c4ccccc43)c2=O)cc1 | 5.91% |
| CCC(C)n1c(=O)c2sccc2n2c(CCCC(=O)N3CCN(c4ccccc4)CC3)nnc12 (stereo not given) | -13.2% |
| COc1cccc(Cc2nc3ccccc3nc2SCC(=O)Nc2cccc(C)c2)c1 | 15.5% |
| Cc1ccc(Cn2cc(S(=O)(=O)c3cccc(C)c3)c(=O)c3cc(F)c(N4CCOCC4)cc32)cc1 | -10.8% |
| O=C(Nc1cc(-c2ccccc2)sc1C(=O)O)c1cccc(F)c1 | 20.6% |
| COc1ccccc1-c1cc(C(=O)NCCCn2ccnc2)no1 | active: 45.9% |
| COc1ccc(CNC(=O)c2sc3nc4n(c(=O)c3c2C)CCCC4)cc1 | -22.5% |
| OC(COCC1COc2ccccc2O1)CN1CCN(c2ccccn2)CC1 (stereo not given) | active: 82.8% |
| CCOc1cc(C2c3c(-c4cc(C)ccc4O)n[nH]c3C(=O)N2CCCOC(C)C)ccc1O (stereo not given) | -1.59% |

| Structure (SMILES) | inhibition |
| --- | --- |
| CCn1ccc2cc(S(=O)(=O)N3CCCN(C(=O)Nc4ccccc4F)CC3)ccc21 | 21.7% |
| COc1cccc(Cn2c(SCC(=O)N3CCN(c4ccc(F)cc4)CC3)nc3ccccc32)c1 | -4.71% |
| O=C(CSc1nnc(-c2ccc3c(c2)OCO3)o1)Oc1ccccc1 | -4.81% |
| O=C(COC(=O)c1cc(-c2cccs2)nc2ccccc12)c1ccc(F)cc1 | 10.6% |
| CCOc1ccc(-n2c(=S)sc3c(=O)[nH]c(SCC(=O)NCc4ccco4)nc32)cc1 | active: 45.2% |
| Cc1ccc(CN(C(=O)c2ccc(C(C)(C)C)cc2)c2ccccn2)o1 | 9.51% |
| CC(C)CC(=O)Nc1ccc2nc(SCC(=O)N3CCc4ccccc43)sc2c1 | 12.5% |
| CCOc1ccccc1CNC(=O)c1sc2ncccc2c1-n1cccc1 | -13% |
| CCOc1ccc(-n2cc(-c3ccccc3)c3c(Nc4cccc(F)c4)ncnc32)cc1 | -13.6% |
| O=C(O)CCS(=O)(=O)c1ccccc1Cl | active: 38.8% |
| COc1cccc(C(=O)Nc2c(C(=O)Nc3ccc(F)cc3)oc3ccccc23)c1OC | -3.4% |
| CCOc1ccc(C(=O)Nc2nnc(SCc3cc(=O)n4ccccc4n3)s2)cc1 | -16.4% |
| CCN(Cc1ccccc1)S(=O)(=O)c1cc(Br)cc2c1N(C(=O)C1CC1)CC2 | -8.25% |
| Cc1ccc(NC(=O)c2cnc(N3CCCC3)nc2C)cc1F | -13.2% |
| Cc1ccc2onc(CC(=O)N3CCN(c4cccc(Cl)c4)CC3)c2c1 | 4.4% |
| COc1ccc(NC(=O)Cn2c(=O)oc3cc(S(=O)(=O)N4CCCCCC4)ccc32)cc1OC | 9.11% |
| Cc1cc(F)ccc1NC(=O)Cn1cc(S(=O)(=O)NC(C)C)c(S(=O)(=O)NC(C)C)c1 | -10.9% |
| Cc1ccc(CN(C(=O)COc2ccccc2[N+](=O)[O-])c2ccccn2)o1 | 8.52% |
| O=C(Cn1nnc(-c2ccccc2NC(=O)c2ccccc2F)n1)NCc1ccco1 | active: 32.5% |
| O=c1oc2ccccc2cc1-c1cn2cc(Cc3cc(Cl)ccc3Cl)sc2n1 | 0.423% |
| COc1ccc(C2c3c(-c4ccccc4)n[nH]c3C(=O)N2c2ccc(C(=O)O)cc2)cc1 (stereo not given) | active: 39% |
| COc1ccc(NC(=O)C2CCCN(S(=O)(=O)c3ccc(F)cc3)C2)cc1 (stereo not given) | -2.21% |
| CCN(CC)S(=O)(=O)c1ccc2c(c1)N(CC(=O)Nc1cccc(C#N)c1)C(=O)CO2 | -3.55% |
| FC(F)(F)c1cc(-c2ccccc2)nc2cc(-c3ccccc3)nn12 | 8.83% |

| Structure (SMILES) | inhibition |
| --- | --- |
| CCc1nnc(NC(=O)CSc2nc3c([nH]c4ccccc43)c(=O)n2-c2ccc(Cl)cc2)s1 | 9.79% |
| COC(=O)c1ccc(NC(=O)C(=O)NCCc2csc(-c3ccc(F)cc3)n2)cc1 | -0.71% |
| Cc1ccc(O)c(NC(=O)C2=CC(c3ccco3)=NS(=O)(=O)N2C)c1 | 25.3% |
| O=C(CSc1ncccc1C(=O)Oc1ccccc1Cl)Nc1ccc(C(F)(F)F)cc1Cl | 5.64% |
| Cc1csc2nc(COC(=O)CNC(=O)c3ccccc3)cc(=O)n12 | -5.18% |
| O=C(c1ccc(Cl)cc1)n1nc(-c2cccnc2)nc1NCc1ccc(F)cc1 | 8.68% |
| CCOC(=O)c1cccc(NC(=O)CCS(=O)(=O)c2ccc3c(c2)CCN3C(=O)CC)c1 | -19.4% |
| CC(=O)c1cccc(NC(=O)c2ccc3nc(Cc4ccccc4)oc3c2)c1 | -5.26% |
| CCn1c(=O)c2sccc2n2c(CCCC(=O)N3CCN(c4ccc(F)cc4)CC3)nnc12 | 1.5% |
| CCCCOc1ccc(C(=O)N(Cc2ccccc2)C2CCS(=O)(=O)C2)cc1 (stereo not given) | 0.446% |
| CCN(CC)c1ccc2cc(-c3nc4sc5c(c4c(=O)[nH]3)CCC(C(C)(C)C)C5)c(=O)oc2c1 (stereo not given) | -13.9% |
| COc1cccc(NC(=O)c2c(C)oc3nc(C)nc(N4CCCC4)c23)c1 | 6.69% |
| CCN1CCN(Cc2c(O)ccc3oc(C)c(C(=O)Nc4cccc(C(F)(F)F)c4)c23)CC1 | -12.1% |
| Cc1ccc2c(c1)N(C(=O)CCC(=O)NCc1cccc(F)c1)CC(C)O2 (stereo not given) | -18.9% |
| COc1ccc(CC(=O)Nc2nc3c(s2)CCCC3)cc1 | -7.21% |
| CCC(=O)N1CCc2cc(S(=O)(=O)CCC(=O)N3CCN(c4cccc(C)c4C)CC3)ccc21 | 0.391% |
| Cc1cccc(C)c1NC(=O)c1cc(S(=O)(=O)N2CCc3ccccc3C2)ccc1F | -28.2% |
| CCCN1Cc2cccc(C(=O)Nc3cc(Cl)ccc3C)c2C1=O | 3.76% |
| O=C(CSc1nccn1Cc1ccc(F)cc1)NCc1ccco1 | -11.3% |
| Cc1cc(C)c2c(c1)c(C)cc1nnc(SCC(=O)c3ccccc3)n12 | 8.6% |
| Cc1ccc(C)c(NC(=O)C(CC(C)C)N2Cc3ccccc3C2=O)c1 (stereo not given) | 0.546% |
| O=C(CN1C(=O)c2ccccc2Sc2ccc(C(=O)N3CCOCC3)cc21)Nc1ccc(Cl)cc1F | 9.41% |
| CC(C)(C)c1ccc(C(=O)Nc2ccc(-c3nc4ccccc4o3)c(O)c2)cc1 | 4.91% |
| Cc1cccc(NC(=O)c2sc3ncnc(N(C)C4CCCCC4)c3c2C)c1C | 11.9% |

| Structure (SMILES) | inhibition |
| --- | --- |
| CCOc1ccc(-c2nnc(SCC(=O)Nc3cccc(C#N)c3)o2)cc1 | 8.05% |
| COc1cccc(NC(=O)Nc2ccc3c(c2)N(C)C(=O)c2ccccc2S3)c1 | -2.56% |
| CC1CCN(C(=O)Cn2c(-c3cccs3)cc3cc(Cl)ccc32)CC1 | -1.79% |
| Cc1ccc(NC(=O)COc2ccc(-n3cnnn3)cc2)cc1C | active: 41.5% |
| COc1ccc(OCCn2c(NC(=O)c3ccc(OC)cc3)nc3ccccc32)cc1 | 0.681% |
| CNC(=O)C1CCC(Cn2c(=O)c3sccc3n(CC(=O)N3CCCC(C)C3)c2=O)CC1 (stereo not given) | -0.966% |
| COCCCNC(=O)C1CCN(Cc2cc3ccccc3n2Cc2cccc(C)c2)CC1 | 10.1% |
| COc1ccc(-c2nnc(SCC(=O)N3CCC(C)CC3)o2)cc1 | 6.94% |
| COc1ccccc1CNC(=O)CSc1ncc(S(=O)(=O)c2ccc(C)c(Cl)c2)c(=O)[nH]1 | 19.6% |
| CCN(CC)S(=O)(=O)c1ccc(NC(=O)Cn2c(=O)sc3ccccc32)cc1 | active: 43% |
| Cc1cccc(CCNC(=O)c2cc(S(=O)(=O)N3CCCCC3)c[nH]2)c1 | -12.4% |
| Cc1cccc(N2CCN(C(=O)c3ccc4c(c3)N(Cc3ccccc3)C(=O)c3ccccc3S4(=O)=O)CC2C)c1 (stereo not given) | 24.8% |
| Cc1c2cnn(-c3ccccc3)c(=O)c2c(C)n1C(C)C(=O)Nc1ccccc1C(F)(F)F (stereo not given) | -2.15% |
| Cc1ccc(C)c(NC(c2ccccc2)c2nnc(-c3ccccc3F)o2)c1 (stereo not given) | -25.3% |
| CCOC(=O)CC(NC(=O)Cn1nnc(-c2ccccc2Cl)n1)c1ccc(OC)cc1 (stereo not given) | -28.1% |
| CCOC(=O)c1[nH]c(=O)[nH]c1CSc1nc(C)cc(C)n1 | active: 31.9% |
| COc1ccc(CCN2C(=O)N(c3cccc(C)c3)C(=O)C2CC(=O)Nc2ccccc2)cc1OC (stereo not given) | -17.9% |
| Clc1ccc(CCNc2nc3cc(Cl)c(Cl)cc3n3cnnc23)cc1 | 1.35% |
| O=S(=O)(c1ccc(F)cc1)N1CCC(Oc2cccc(C(F)(F)F)c2)CC1 | 2.6% |
| COc1c(Cl)cc(Cl)cc1C(=O)Nc1cccc(-c2nc3ccccc3o2)c1C | 2.84% |
| CCn1c(COc2ccc(Cl)cc2Cl)nc2ccccc21 | 0.948% |
| COc1ccc(S(=O)(=O)N2Cc3ccccc3CC2C(=O)Nc2ccc(C)cc2)cc1OC (stereo not given) | 13% |
| COc1ccc(CCNC(=O)CCCn2c(=O)c3ccccc3n(Cc3ccccc3)c2=O)cc1OC | 20.4% |
